Assay results as given in PubChem BioAssay AID2202238 (Ras Initiative Chemistry Research Team, Frederick National …, 2025).
Out of some 2,200 compounds screened, fewer than 10 were called active. The list shows a part of the results. Where no call is shown, the source marks the result inconclusive.

These molecules were tested against GTPase KRas (Homo sapiens) (UniProt P01116) (assay: Fragment capture on engineered cysteines, share of protein labelled (AID 2202238)). Conditions: KRAS G12D cysteine mutants, disulfide tethering, MALDI-TOF labeling; stronger effect = higher value; H27C mutant labeling; fragment at 500 µM.
Chain of UniProt P01116 (P01116 whole entry, looked up, the tested form may be a part): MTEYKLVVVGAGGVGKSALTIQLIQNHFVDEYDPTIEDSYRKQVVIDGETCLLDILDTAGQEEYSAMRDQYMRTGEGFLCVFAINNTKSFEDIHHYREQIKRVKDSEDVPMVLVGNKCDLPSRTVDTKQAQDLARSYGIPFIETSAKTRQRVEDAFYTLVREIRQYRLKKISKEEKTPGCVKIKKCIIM
Parameters: protein at 5 µM with 500 µM competing thiol for 1.5 h
`O=C(NCCS)c1cc2c(ccc3ccccc32)o1` gave a percent labeling of 17.6%.
`O=C(CCS)NC1CS(=O)(=O)C2CN(Cc3ccccc3)CC12` (stereo unspecified) showed a percent labeling of 33.8%.
For `CCCC(NC(=O)c1cc2ccccc2s1)C(=O)NCCS` (stereo unspecified), the percent labeling was 16.9%.
In the case of `Cc1ccc(CN(CCO)C(=O)CCS)o1`, the percent labeling is reported as 27.9%.
Work on `O=C(CCS)Nc1cccc(Cc2nc3cccc(Cl)c3s2)c1` yielded a percent labeling of 22.9%.
`Cn1c(=O)n(CC(=O)NCCS)c2ccccc21` showed a percent labeling of 42.6%.
`O=C(CCS)N1C[C@@H]2C[C@H](C1)[C@@H]1CCCC(=O)N1C2` was tested, and the percent labeling was 21.8%.
`Cn1cc(CNC(=O)CCS)c(=O)[nH]c1=O` showed a percent labeling of 24.6%.
With `Cc1cc(NC(=O)CCS)nn1CCC#N` the percent labeling was 42.9%.
`O=C(NCCS)C1Cc2cc(Br)cnc2C1` (stereo unspecified) showed a percent labeling of 44.4%.
With `O=C(NCCS)C1CCN(S(=O)(=O)c2ccc3[nH]c(=O)cnc3c2)CC1` the percent labeling was 23.3%.
`Cn1cc(C(C(=O)NCCS)N2CCOCC2)cn1` (stereo unspecified) showed a percent labeling of 29.4%.
For `O=C(NCCS)c1ccnc(OC2CCOC2)c1` (stereo unspecified), the percent labeling was 37.7%.
`Cc1nc(-c2cc3c(s2)CCN(C(=O)CCS)C3)cs1` gave a percent labeling of 33.8%.
`O=C(NCCS)c1ccnc(-c2ccc(Cl)cc2)n1` was tested, and the percent labeling was 31.3%.
In the case of `CCc1cc(=O)c2cc(NC(=O)CCS)ccc2[nH]1`, the percent labeling is reported as 37%.
In the case of `Cc1ccc(-c2c[nH]cc2C(=O)NCCS)s1`, the percent labeling is reported as 3.9%.
For `O=C(CCS)NCc1cc2n(n1)CCCO2`, the percent labeling was 33.9%.
`Cn1cc(S(=O)(=O)N2CCOCC2)cc1C(=O)NCCNC(=O)CCS` was tested, and the percent labeling was 27.2%.
Work on `O=C(NCCS)c1cccc(OCc2cn3ccccc3n2)c1` yielded a percent labeling of 30.7%.
`CC(C)c1n[nH]c(CC2CCN(C(=O)CCS)CC2)n1` showed a percent labeling of 40.6%.
In the case of `N#Cc1cccc(OCc2ccoc2C(=O)NCCS)c1`, the percent labeling is reported as 20.9%.
Work on `O=C(CCS)NCc1nccn1CC(F)(F)F` yielded a percent labeling of 28.5%.
`Cc1ccnc(-c2n[nH]c(C(C)NC(=O)CCS)n2)c1` (stereo unspecified) showed a percent labeling of 36%.
`O=C(COc1ccc2ccccc2c1)NCCS` was tested, and the percent labeling was 18.1%.
For `O=C(CCS)NC1(c2ccc(Br)s2)CC1`, the percent labeling was 50.3%.
`COc1ccc2ccccc2c1CNC(=O)CCS` gave a percent labeling of 34.9%.
With `CC(=O)Nc1ccc(-c2csc(NC(=O)CCS)n2)cc1` the percent labeling was 35.8%.
Molecule `O=C(NCCS)c1ccc(NC(=O)c2ccc(=O)[nH]c2)cc1` has a percent labeling of 34.5%.
`CN(CC(=O)NCc1cccs1)C(=O)CCS` was tested, and the percent labeling was 32.2%.
For `O=C(CCS)NCCc1cn2ccccc2n1`, the percent labeling was 29.9%.
`O=C(CCS)NCc1cc(Cl)c2c(c1)OCO2` gave a percent labeling of 41.9%.
`Cn1cc(-c2nn(C)cc2C(=O)NCCS)cn1` was tested, and the percent labeling was 32.3%.
Molecule `Cn1c(C(=O)NCCS)cc2cc(C(F)(F)F)ccc21` has a percent labeling of 20.2%.
`O=C(NCCS)c1ccc(N2CCCC2)c(F)c1` was tested, and the percent labeling was 25.2%.
For `Cc1ccc(OCc2ccc(C(=O)NCCS)o2)cc1`, the percent labeling was 30.2%.
With `Cc1cnc(C(=O)NCCS)cn1` the percent labeling was 38.5%.
Work on `COc1ccc(Cl)cc1C(=O)N1CCCC1C(=O)NCCS` (stereo unspecified) yielded a percent labeling of 33.6%.
`COCCn1c(CCN(C)C(=O)CCS)nc2ccccc21` was tested, and the percent labeling was 38%.
`O=C(NCCS)C1CCCC2CC(O)CCC21` (stereo unspecified) gave a percent labeling of 33.1%.
Work on `CCC(=O)Nc1ccc(OC)cc1NC(=O)CCS` yielded a percent labeling of 35.9%.
Work on `O=C(NCCS)C1CCCN1Cc1ccc(Cl)cc1` (stereo unspecified) yielded a percent labeling of 35.4%.
Work on `O=C(CNC(=O)COc1ccccc1)NCCS` yielded a percent labeling of 28.8%.
`CN(C(=O)CCS)C1CCC(NC(=O)OC(C)(C)C)CC1` (stereo unspecified) gave a percent labeling of 42.6%.
`O=C(NCCS)c1ccn(-c2ncc(C(F)(F)F)cc2Cl)n1` gave a percent labeling of 25.6%.
In the case of `Cc1cc2c(N3CC(NC(=O)CCS)C3)nccn2n1`, the percent labeling is reported as 45.7%.
`CN1C(=O)C(C)(C)c2cc(C(=O)NCCS)ccc21` gave a percent labeling of 41.9%.
With `CC(C)n1nc(NC(=O)CCS)cc1CO` the percent labeling was 38.8%.
Work on `Cn1nc2cc(Br)ccc2c1C(=O)NCCS` yielded a percent labeling of 39.1%.
Work on `CN1CCOCC1c1n[nH]c(CNC(=O)CCS)n1` (stereo unspecified) yielded a percent labeling of 33.9%.
With `COc1cc(-n2cnnn2)c(Cl)cc1C(=O)NCCS` the percent labeling was 17.8%.
Work on `Cc1ccc2nc(C)c(C(=O)NCCS)cc2c1` yielded a percent labeling of 30%.
Molecule `CC(C)(C(=O)NCCS)c1cccc(C(F)(F)F)c1` has a percent labeling of 32.2%.
`O=C(CCS)Nc1nnc(Cc2ccc(C(F)(F)F)cc2)s1` gave a percent labeling of 7.8%.
For `O=C(CCS)NCc1cc(C2CCC2)n[nH]1`, the percent labeling was 36%.
In the case of `N#Cc1cnn(-c2ccc(C(=O)NCCS)cc2)c1N`, the percent labeling is reported as 36.9%.
For `COc1cccc(OCCNC(=O)CCS)c1O`, the percent labeling was 29.8%.
`CCC(Cc1cccc(Br)c1)C(=O)NCCS` (stereo unspecified) was tested, and the percent labeling was 25.5%.
`O=C(CCS)Nc1cccc(OC2CCCCC2)c1` gave a percent labeling of 22.1%.
In the case of `CCOC(=O)c1cnc(CNC(=O)CCS)nc1C(F)F`, the percent labeling is reported as 31.9%.
In the case of `O=C(CCCNC(=O)c1ccc(Cl)cc1)NCCS`, the percent labeling is reported as 29.3%.
In the case of `CCOc1cc(C(=O)N(C)C)ccc1NC(=O)CCS`, the percent labeling is reported as 44.1%.
For `CC(C(=O)NCCS)c1ccc2c(c1)OCCO2` (stereo unspecified), the percent labeling was 40.2%.
For `CCCOc1ccc(C(F)(F)F)cc1NC(=O)CCS`, the percent labeling was 41.2%.
Work on `CC(C)c1ccc2cc(C(=O)NCCS)[nH]c2c1` yielded a percent labeling of 10.6%.
With `NC(=O)c1cc(CNC(=O)CCS)n2c1COCC2` the percent labeling was 22.9%.
In the case of `CC(C(=O)NCCS)n1nnc(-c2ccccc2)n1` (stereo unspecified), the percent labeling is reported as 21.1%.
Work on `Cc1nn(C)c2[nH]c(=O)c(CCC(=O)NCCS)c(C)c12` yielded a percent labeling of 42.1%.
Molecule `COc1cccc(COC(C)C(=O)NCCS)c1` (stereo unspecified) has a percent labeling of 31.8%.
`CCOc1ccc(NC(=O)CCS)cc1CN(CC)CC` was tested, and the percent labeling was 59.4%.
Molecule `COc1ccc(C(=O)NCCS)nc1` has a percent labeling of 54.2%.
With `COc1cnc(C(F)(F)F)cc1C(=O)NCCS` the percent labeling was 38.8%.
Work on `Cc1nn(CC(C)C)c(C)c1CCC(=O)NCCS` yielded a percent labeling of 30.3%.
`O=C(CCS)Nc1ccc(OCC2CC2)cc1F` showed a percent labeling of 35.6%.
In the case of `O=C(NCCS)C1CCN(C(=O)OCc2ccccc2)CC1`, the percent labeling is reported as 35.1%.
Molecule `O=C(NCCS)[C@@H]1C[C@H]1c1ccccn1` has a percent labeling of 43%.
`O=C(NCCS)c1ccc(COc2ccccc2)cc1` was tested, and the percent labeling was 23.1%.
Molecule `O=C(CN1C(=O)COc2ccc(Cl)cc21)NCCS` has a percent labeling of 41.1%.
`O=C(CCS)NCc1ccc(C(F)F)nc1` was tested, and the percent labeling was 33.3%.
`COc1ccc(OC)c(-c2cc(C(=O)NCCS)[nH]n2)c1` showed a percent labeling of 30.4%.
In the case of `Cc1csc(=O)n1CC(=O)NCCS`, the percent labeling is reported as 37.4%.
`O=C(CN1C(=O)C2CC=CCC2C1=O)NCCS` (stereo unspecified) was tested, and the percent labeling was 22.4%.
With `Cc1nnc(N2CCN(C(=O)CCS)CC2)s1` the percent labeling was 36.1%.
Work on `O=C(CCS)NCC1(c2ccncc2F)CC1` yielded a percent labeling of 29.5%.
Work on `O=C(NCCS)c1cnc2nc[nH]c2c1` yielded a percent labeling of 58.6%.
Molecule `CN(CC(=O)NCCS)C(=O)c1cnn(C)c1-n1cccc1` has a percent labeling of 33.6%.
`Cc1nc2c(s1)CCCC2CNC(=O)CCS` (stereo unspecified) gave a percent labeling of 38.5%.
`N#Cc1ccc(N2CCC(C(=O)NCCS)CC2)nc1` was tested, and the percent labeling was 41%.
Molecule `O=C(CCS)N1CCCC1c1c(F)cccc1F` (stereo unspecified) has a percent labeling of 36.4%.
In the case of `O=C(CCS)NC1CCCc2c1cnn2-c1ccccc1F` (stereo unspecified), the percent labeling is reported as 45.9%.
`O=C(NCCS)c1cccnc1Cl` gave a percent labeling of 45.3%.
